The results in this text go back to paper PMC12040169 (PLOS Biology, 2025).

Some of the results follow.

This assay concerns T1, C. trachomatis L2/434/Bu expressing GFP (CTL2-GFP).
T1 construct: L2/434/Bu GFP intracellular growth in HeLa cells
The arrangement: species or system HeLa; C. trachomatis total inclusion area by high-content imaging, normalised to DMSO. The following applies: total inclusion area; 28.5 h, 10 µM; inhibitor. In a few lines: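 Bulk GFP and resorufin signals were read first. Wells were then fixed, stained with Hoechst and imaged to detect GFP inclusions and host nuclei. MICs followed the previously described calculation.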
As for `Nc1ccc(-c2nc(NC(=O)Cc3ccccc3)cnc2-c2ccc(F)c(Cl)c2)cc1` [CBK036690], the “% of control remaining” value is 71.649.

In the case of `COc1ccccc1-c1nccnc1OC` [CBK106811], the “% of control remaining” value is reported as 68.1272.

Regarding `CC1(C)[C@H](Cc2cc(CO)on2)C[C@@H]1NS(=O)(=O)c1ccccc1` [CBK289234], the “% of control remaining” value was determined as 76.3306.

In the case of `Cc1ccccc1OCC(=O)NCC1(N2CCCCC2)CCCCC1` [CBK297752], the “% of control remaining” value worked out at 87.6278.

Turning to `COC(=O)C1CCCCN1S(=O)(=O)c1cccc2cccnc12` (stereo not drawn) [CBK051244], the “% of control remaining” value amounted to 93.339.

In the case of `COc1ccccc1NC(=O)Cn1cc(C(=O)c2cccs2)c2ccccc21` [CBK268256], the “% of control remaining” value was determined as 87.9691.

Take `O=C(NCCCNC(=O)c1ccc(Br)o1)c1ccccn1` [CBK269430]: the “% of control remaining” value was 109.264.

As to `COc1ccc(-c2noc(CN(C(C)=O)C3CCCCC3)n2)cc1` [CBK270264], the “% of control remaining” value stood at 93.3265.

With `Cc1ccc(NC(=S)N(CCN(C)C)Cc2cc3ccc(C)cc3[nH]c2=O)c(C)c1` [CBK135134], the “% of control remaining” value is recorded as 94.6028.

`O=C(c1cc2cc(Cl)ccc2[nH]1)N1CCN(c2ccccn2)CC1` [CBK107343]: the “% of control remaining” value is 88.6882.

With `CN1CC[C@H](c2nc3ncccc3[nH]2)C1` [CBK289384], the “% of control remaining” value came out at 58.8611.

In the case of `Cc1ccc(S(=O)(=O)Nc2ccc(Nc3cc(-c4cc5ccccc5o4)ncn3)cc2)cc1` [CBK090976], the “% of control remaining” value is 112.964.

On to `NS(=O)(=O)c1ccc(NC(=O)c2ccc3ccccc3c2)cc1` [CBK264338], for which the “% of control remaining” value stood at 93.6065.

Turning to `Cc1cc(C)c2c(c1)cc(C)c1nn(CC(=O)N(C)C)c(=O)n12` [CBK283927], the “% of control remaining” value turned out to be 91.6848.

Consider `CC(=O)CCCCC(=O)N1CCC2(CC1)CC(=O)c1cc(C)c(C)cc1O2` [CBK156497], for which the “% of control remaining” value was determined as 123.294.

In the case of `O=C(C1CCCC1)N1CCC(n2c(=O)oc3ccc(Cl)cc32)CC1` [CBK284344], the “% of control remaining” value is reported as 91.3458.

With `O=S(=O)(Nc1nnn[nH]1)c1csc2ccccc12` [CBK062590], the “% of control remaining” value is 122.699.

With `O/N=C1\CC(c2ccccc2)Oc2ccc(Cl)cc21` (stereo not drawn) [CBK288370], the “% of control remaining” value was 38.3729.

`CC(C)Nc1nccnc1OCc1ccc(F)cc1` [CBK115644]: the “% of control remaining” value was found to be 105.462.

In the case of `Cc1cnc2c(Cl)c(C(=O)N3CCN(C)C4(CCNCC4)C3)nn2c1` [CBK306513], the “% of control remaining” value worked out at 41.3099.

For the molecule `CCOC(=O)C1CSCCN1C(=O)c1cc(C)n(-c2nccs2)c1C` (stereo not drawn) [CBK305884], the “% of control remaining” value was determined as 42.0393.

For the molecule `O=C1CC(N2CCN(c3ccccc3)CC2)C(=O)N1c1cccc2ccccc12` (stereo not drawn) [CBK261263], the “% of control remaining” value is on record as 108.746.

On to `O=C(NC1CCCCC1)[C@@H]1C=CCN1C(=O)c1cccs1` [CBK284338], for which the “% of control remaining” value is 76.2692.

`Cc1ccc(OCCOc2cccc(/C=N/n3cnnc3)c2)cc1` [CBK263028]: the “% of control remaining” value is given as 97.587.

For the molecule `COC(=O)c1cn(C(=O)COc2ccc(Cl)cc2)c2ccccc12` [CBK262598], the “% of control remaining” value was 104.347.

Turning to `CN(C)S(=O)(=O)N(CC(=O)Nc1cccc([N+](=O)[O-])c1)c1ccccc1` [CBK265904], the “% of control remaining” value worked out at 87.4987.

Take `CS(=O)(=O)c1ccc(CNc2nccnc2-c2ccccc2F)cc1` [CBK036836]: the “% of control remaining” value was found to be 102.48.

Take `CC(=O)Nc1cccc(-n2nnnc2SCCCc2nc3ccccc3o2)c1` [CBK298317]: the “% of control remaining” value is recorded as 92.7443.

For the molecule `O=C1CN(C(=O)NCc2cccc3ccccc23)CCN1` [CBK155852], the “% of control remaining” value is 132.319.

As to `C=CCn1c2ccccc2c2nnc(SCC(=O)OCN3C(=O)c4ccccc4C3=O)nc21` [CBK263231], the “% of control remaining” value was found to be 85.6692.

For the molecule `COc1ccc(C(=O)C2=C(O)C(=O)N(CCCN(C)C)C2c2ccc(Cl)c(Cl)c2)c(C)c1` (stereo not drawn) [CBK264896], the “% of control remaining” value is 117.672.

As to `COc1cccc(-c2csc(N3CCN(C(=O)Nc4ccccc4)CC3)n2)c1` [CBK070275], the “% of control remaining” value was determined as 88.6774.

Take `O=C1NCCNC(=O)C2(C/C=C/COc3ccccc31)CCN(C(=O)CCN1CCCCC1)CC2` [CBK292026]: the “% of control remaining” value turned out to be 84.5047.

Regarding `CC(C)(CN1CCCC1)CN1CCC(O)(c2ccccc2F)CC1` [CBK282798], the “% of control remaining” value stood at 109.437.

Regarding `S=c1[nH]nc(COc2ccccc2)n1C1CCCCC1` [CBK014411], the “% of control remaining” value was 81.2507.

As for `CCC1CCCCN1C(=O)c1ccnc(C)c1` (stereo not drawn) [CBK081093], the “% of control remaining” value was found to be 98.6331.

Take `COc1cccc(OCC(=O)NCC(c2cccs2)N2CCOCC2)c1` (stereo not drawn) [CBK304664]: the “% of control remaining” value was determined as 111.103.

On to `CC(C)(CNC(=O)c1ccc(=O)n(CC(=O)N2CCc3ccccc32)c1)c1ccccc1F` [CBK286020], for which the “% of control remaining” value worked out at 137.221.

For the molecule `Cc1c(C(=O)N2CCC(c3nc(C)n4ccsc34)CC2)cnn1C` [CBK285201], the “% of control remaining” value turned out to be 74.0735.

Consider `CN1CCN(c2ccc(-c3cc(Nc4cccc(OCc5ccccc5)c4)ncn3)cn2)CC1` [CBK090918], for which the “% of control remaining” value stood at 110.678.

For the molecule `O=C(c1c[nH]c2ccccc12)N1CCC(Cc2ccccc2)CC1` [CBK200180], the “% of control remaining” value came out at 105.949.

For `CC1(C(=O)Nc2cnn(Cc3ccc(F)cc3)c2)CCCO1` (stereo not drawn) [CBK282585], the “% of control remaining” value is 91.87.

`CSc1nc2ccc(NC(=O)CSc3nnnn3-c3ccccc3)cc2s1` [CBK263549]: the “% of control remaining” value is listed as 108.596.

Regarding `COc1cc(C(N)C(=O)O)ccc1OCc1ccccc1` (stereo not drawn) [CBK286909], the “% of control remaining” value is 72.6832.

With `COc1cccc(CNC2CC2)c1OCc1ccccc1` [CBK270009C], the “% of control remaining” value is 91.8869.

As for `O=c1c(N2CCNCC2)nccn1CC1COc2ccccc2O1` (stereo not drawn) [CBK024845T], the “% of control remaining” value worked out at 41.7561.

`CC1(C)C/C(=N/O)c2cc3c(nc2C1)CC(C)(C)C/C3=N\O` [CBK261629]: the “% of control remaining” value stood at 87.9015.

In the case of `Cc1cc(-c2cc(=O)n(Cc3ccccc3C)nc2-c2ccco2)on1` [CBK282878], the “% of control remaining” value was found to be 92.4526.

On to `COC(=O)c1c(NC(=S)NNC(=O)c2nn(C)cc2I)sc2c1CCC2` [CBK267074], for which the “% of control remaining” value is 117.

`O=C(NC[C@H]1O[C@@H](CC(=O)N2CCN(c3ccccc3)CC2)[C@H](O)[C@@H]1O)c1ccco1` [CBK288919]: the “% of control remaining” value is given as 69.8413.

On to `COC(=O)c1ccc(N2CCN(Cc3nc(C4CC4)no3)C(C)C2)cc1` (stereo not drawn) [CBK305744], for which the “% of control remaining” value is 80.0438.
